Laboratory results: PubChem BioAssay AID1347073 (National Center for Advancing Translational Sciences (NCATS), 2019)
Hit rate of the full screen: of about 45,000 compounds, about 200 (0.44%) were called active. Not shown: some 7% with an inconclusive outcome. The call rests on the fitted dose curve; in most records, active means well fitted activation curve with a large enough effect; inconclusive means small, poorly fitted or top-dose-only effect; inactive means no such curve, though single readings can be large or run the other way. The list shows a part of the results.

assay: qHTS of TDP-43 Inhibitors: NCGC Sytravon Library Screen; settings: yeast TDP-43 toxicity rescue, BacTiter-Glo growth, 24 h; series mostly up to 46.1 µM; growth rescue (activation): at the top concentration; further: 0% is about no effect; nearly all actives have a fitted effect of over 55% in size
In short: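 TDP-43-expressing yeast, pregrown in raffinose, seeded at OD600 0.02 in galactose medium with compound for 24 hr at 30 deg C. Growth read by BacTiter-Glo luminescence, so rescue of toxicity appears as activation.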

SMILES	growth rescue (activation)
CC1CCCCC1NC(=O)/C=C/c1nc2ccccc2s1 (stereo not drawn)	inactive: 11.2%
CN1C(=O)S/C(=C\c2ccccc2OCc2ccc(C(=O)O)cc2)C1=O	inactive: -15.2%
O=C(c1ccco1)N(CCC(c1ccccc1)c1ccco1)Cc1ccccc1 (stereo not drawn)	inactive: -3.29%
O=C(CNC(=O)OCc1ccccc1)NC1CCCCCC1	inactive: 8.07%
O=C(O)CC1SC(=Nc2ccc(O)cc2)NC1=O (stereo not drawn)	inactive: -7.2%
Cc1ccc(NC(=O)N2CCc3ccccc32)cc1C	inactive: 29.3%
O=C(O)C1C2CCC(O2)C1C(=O)Nc1ccc(Cl)cc1F (stereo not drawn)	inactive: -9.48%
CCN(Cc1ccccc1)C(=O)C1CCN(Cc2sccc2C)CC1	inactive: 0.997%
COC(=O)c1cc(S(=O)(=O)n2nc(C)cc2C)c(Cl)cc1Cl	inactive: -4.12%
COc1ccc(C)cc1NCC(=O)Nc1ccc(C(C)(C)C)cc1	inactive: -15.6%
Cc1ccc(NC(=O)c2cc(-c3ccc4c(c3)OCO4)on2)cc1C	inactive: -7.77%
COc1ccc(-n2ccc(=O)c(C(=O)O)n2)c(OC)c1	inactive: 1.51%
CC1CC(=O)N(c2ccc(NCc3ccc(Cl)cc3)c([N+](=O)[O-])c2)C1=O (stereo not drawn)	inactive: 11%
CC(C)C(=O)N1CCC1(C)C(=O)Nc1ccc(-n2cccc2)cc1 (stereo not drawn)	inactive: 24.5%
O=C(NC1CCCCC1)C(=S)N1CCCC1	inactive: 13.8%
O=C(COc1cccc2cccnc12)NCc1cccs1	inactive: -0.652%
CCCCNC(=O)NCCN1CCOCC1	inactive: 2.06%
Cc1ccc(NC(=O)c2ccc3c(=O)n4c(nc3c2)CCCCC4)cc1F	inactive: -5.18%
CCc1nn(CCCC(=O)NCc2ccc(OC)c(OC)c2)c(=O)c2cc3occc3n12	inactive: 10.2%
Cc1onc(-c2ccccc2Cl)c1C(=O)NNC(=O)c1ccccc1F	inactive: 15.4%
COc1ccc(CCn2c(O)c(C=Nc3cccc(F)c3)c(=O)[nH]c2=O)cc1OC	inactive: 9.39%
COc1ccc(C(=O)OCCN2CCCCC2)cc1	inactive: -2.45%
CC(=O)c1cccc(NC(=O)CN(C)Cc2ccc(OC(F)F)cc2)c1	inactive: 20.5%

SMILES	growth rescue (activation)
CCOC(=O)CN(C(=O)COC(=O)C1=NNC(=O)CC1)c1ccc(F)cc1	inactive: 2.15%
CC(=O)Nc1ccc(NC(=O)CCCNC(=O)c2ccc(Cl)cc2)cc1	inactive: -0.355%
NC(=O)c1ccsc1NC(=O)CSc1n[nH]c(N)n1	inactive: -0.844%
CCN(CC)c1ccc(C=C2C(=O)OC3(CCCCC3)OC2=O)cc1	inactive: 4.79%
COc1ccc(S(=O)(=O)NCCN2CCOCC2)c(C)c1C	inactive: -8.63%
NCc1oc(-c2ccccc2)cc1C(=O)O	inactive: 2.53%
CCC(C)c1ccccc1NC(=O)COC(=O)c1ccc2[nH]c3c(c2c1)CCCC3 (stereo not drawn)	inactive: 15.4%
CC1CCCCN1CCNC(=O)C1CC(=O)N(c2ccc(F)c(Cl)c2)C1 (stereo not drawn)	inactive: 7.47%
COCCN1CCN(C(=O)c2ccc3oc(CCc4ccccc4)nc3c2)CC1	inactive: 11.1%
CCCOc1nc2ccccc2cc1/C=C/C(=O)O	inactive: 18.6%
COc1ccnc(Oc2ccccc2)c1C(=O)N/C=N/OCc1ccccc1	inactive: 23.9%
CCc1c(C(=O)N/N=C/c2ccco2)nnn1-c1nonc1N	inactive: 11%
CCOC(=O)c1sc(NC(=O)Nc2ccc(Cl)cc2)cc1C	inactive: 29.3%
Cn1ncc(Cl)c(Oc2ccc(C(C)(C)C)cc2)c1=O	inactive: 29.7%
Cn1cc(CCNCc2cn[nH]c2-c2ccc(-c3ccccc3)cc2)cn1	inactive: 25.8%
O=C(CN(c1ccccn1)S(=O)(=O)c1ccc(F)cc1)Nc1ccccc1	inactive: 9.41%
NNC(=S)NCc1cccnc1	inactive: 14.1%
O=C(Nc1cccc(Cl)c1)c1ccc2c(c1)SC1=NS(=O)(=O)CCN12	inactive: 16.1%
CC(C(=O)Nc1ccccc1)N(c1cccc(Cl)c1)S(C)(=O)=O (stereo not drawn)	inactive: -3.18%
O=C1Nc2ccc(S(=O)(=O)NCC3CCCO3)c3cccc1c23 (stereo not drawn)	inactive: -0.131%
CCc1ccccc1NC(=O)c1noc(C(C)C)c1[N+](=O)[O-]	inactive: 25.9%
O=C(Nc1ccccc1F)c1cc(S(=O)(=O)N2CCOCC2)cs1	inactive: 20.1%
COc1nccnc1NS(=O)(=O)c1ccc(NC(=O)c2ccccc2Br)cc1	inactive: 13.2%

SMILES	growth rescue (activation)
CC(C)c1nc(SCC(=O)NC(=O)NC(C)(C)C)n[nH]1	inactive: 0.246%
O=C(COC(=O)C1CCN(S(=O)(=O)c2cccs2)CC1)Nc1ccccc1Br	inactive: 20.2%
C=CCn1c(C)c(C(C)=O)c(N2CCN(c3ccccc3)CC2)nc1=S	inactive: -7.72%
Nc1nc(-c2nonc2N)no1	inactive: 12.8%
O=C(NC1CCN(C(=O)Nc2ccccc2Cl)CC1)c1ccco1	inactive: 15.7%
CC1(C)CC(=O)C2=C(C1)Nc1ccccc1[S@]2=O	inactive: 7.8%
CCOC(=O)C1(Cc2ccccc2)CCN(Cc2cc(OC)c3c(c2)OCO3)CC1	inactive: 17.8%
COc1ccccc1NC(=O)NCC1CC1(Cl)Cl (stereo not drawn)	inactive: -3.38%
N#CC1(C#N)CC(C=O)=C(N)C1(C#N)CC(=O)C12CC3CC(CC(C3)C1)C2 (stereo not drawn)	inactive: 22.3%
Fc1cccc2sc(Nc3nnc(-c4ccccc4)o3)nc12	inactive: -39.6%
O=C(Nc1cccc([N+](=O)[O-])c1)C1CCN(C(=O)Cc2ccccc2)CC1	inactive: 5.72%
COc1ccc(N(CC(O)CN2CCOCC2)S(=O)(=O)c2ccccc2)cc1 (stereo not drawn)	inactive: 1.61%
Cc1cc(C)n(C(=O)c2ccc(C)c(F)c2F)n1	inactive: 11%
COc1ccc(CNC(=O)C(OC(=O)c2ccco2)c2ccc(F)cc2)cc1 (stereo not drawn)	inactive: 16.4%
CC(=O)c1cccc(NCC(=O)c2ccc(C)c([N+](=O)[O-])c2)c1	inactive: -9.17%
CCCNC(=O)c1ccc(COc2ccc(C(C)(C)C)cc2)o1	inactive: 4.13%
O=C(O)c1ccc(Cl)c(S(=O)(=O)Nc2ccccc2C(=O)Nc2ccc(Cl)cc2)c1	inactive: -5.42%
O=C(COC(=O)c1ccc([N+](=O)[O-])o1)NC1CCS(=O)(=O)C1 (stereo not drawn)	inactive: -8.48%
N#CCC(=O)Nc1ccc(C(=O)OCC(=O)NC(=O)NCc2ccco2)cc1	inactive: 6.25%
COc1cc(CC(=O)OCC(=O)NCc2cccs2)cc(OC)c1OC	inactive: 11.8%
Oc1ccc(C2=Nn3c(nnc3-c3ccco3)SC2)cc1O	inactive: 4.94%
CN(C)c1ccc(N=Nc2ccccc2C(=O)OCC(=O)Nc2ccccc2C(F)(F)F)cc1	inactive: 0.02%
COCc1nnc(NC(=O)COc2ccc3c(c2)OCO3)s1	inactive: 17.6%

SMILES	growth rescue (activation)
CN(c1cc(=O)n2ccccc2n1)C1CCCCC1	inactive: -13.5%
Cc1oc(-c2cccs2)nc1CS(=O)CC(=O)NCc1ccc2c(c1)OCO2 (stereo not drawn)	inactive: -2.32%
COc1ccccc1C(O)(C(=O)N(NC(C)=O)c1ccccc1)c1ccccc1OC	inactive: 5.37%
O=C1NCCN(Cc2ccc(Cl)c(F)c2)C1CC(=O)N1CCCO1 (stereo not drawn)	inactive: 4.79%
O=c1[nH]c(CN2CCOCC2)nc2ccccc12	inactive: 5.86%
CCOC(=O)c1[nH]c(C)c(/C(O)=C2\C(=O)C(=O)N(CCN3CCOCC3)C2c2ccco2)c1C (stereo not drawn)	inactive: 3.73%
Nc1nc(SCC(=O)Nc2cccc([N+](=O)[O-])c2)n[nH]1	inactive: 19.5%
COCCCN=Cc1c(C)[nH]n(-c2ccc(Br)cc2Br)c1=O	inactive: -16.4%
O=C(Nc1ccccc1)c1cc(C2CCCCN2C(=O)CCCc2ccccc2)on1 (stereo not drawn)	inactive: 14.8%
Cc1ccc(-c2nn(-c3ccccc3)cc2CN(C)C(=O)CCC(=O)O)cc1C	inactive: 15.8%
CNS(=O)(=O)c1ccc(NC(=O)c2cncc(Br)c2)cc1	inactive: -5.09%
Cc1ccnc(NS(=O)(=O)c2ccc(NC(=O)c3ccc4c(c3)OCCO4)cc2)n1	inactive: -9.09%
O=C1NC2(CCCCC2)C(=O)N1CC(=O)N1CCc2ccccc21	inactive: -28.1%
COc1cccc(CSCC(=O)NCCc2ccccc2)c1OC	inactive: 22.8%
CCOc1ccc(-c2cn(-c3cccc(SC)c3)c(=O)[nH]2)cc1	inactive: 22.3%
COc1ccccc1NC(=O)Nc1ccc(F)c(F)c1	inactive: 26.1%
NS(=O)(=O)c1ccc(NC(=S)NCc2ccccc2)cc1	inactive: -1.81%
Cc1ncoc1C(=O)N1CCCC(C(=O)c2cccc(OC(C)C)c2)C1 (stereo not drawn)	inactive: 0.192%
C[N+]1(CC2COC3(CCCCC3)O2)CCCCC1 (stereo not drawn)	inactive: -30.8%
COC(=O)Nc1ccc(S(=O)(=O)NC2CCS(=O)(=O)C2)cc1 (stereo not drawn)	inactive: 26.5%
Cc1ccc(OCC(=O)OCC(=O)Nc2sccc2C(N)=O)cc1C	inactive: -17.8%
Cc1ccc(NC(=O)C2CCN(S(=O)(=O)c3c(C)noc3C)CC2)cc1C	inactive: 0.525%
CC(C)c1cccc(-c2csc(C(C)(O)c3ccccc3)n2)c1 (stereo not drawn)	inactive: -76.3%

SMILES	growth rescue (activation)
Cc1ccc(/C=N/NC(=O)C[n+]2ccccc2)s1	inactive: -3.12%
O=C(NCc1cccnc1)c1cc(C2CCCCN2S(=O)(=O)c2cccc3cccnc23)on1 (stereo not drawn)	inactive: 10.1%
O=C(O)Cn1c(=O)c(F)cn(C2CCCO2)c1=O (stereo not drawn)	inactive: 16.9%
Cc1coc2c1c(C)cc1oc(=O)c(CC(=O)N[C@H](C(=O)O)C(C)C)c(C)c12	inactive: -0.879%
CNc1c(NS(=O)(=O)c2cc(Cl)ccc2OC)c(=O)oc2ccccc12	inactive: -1.06%
O=C(CSc1nccn1C1CCCC1)Nc1ccccc1	inactive: 11.5%
CCOC(=O)CSc1nc2ccccc2n2c(C)nnc12	inactive: 8.66%
COc1ccc(CNC(=O)CN(C(=O)CCC(=O)Nc2nccs2)c2ccc(C)cc2)cc1	inactive: 10.3%
O=C(CSc1nnc(Nc2ccccc2)s1)NC1CCS(=O)(=O)C1 (stereo not drawn)	inactive: 4%
S=c1[nH]nc(-c2ccco2)n1-c1ccc(Cl)cc1	inactive: -7.33%
CCOC(=O)C1=C(C)N(C)C(=O)NC1c1cccc2ccccc12 (stereo not drawn)	inactive: 12.5%
CCN(CC)C(=O)CSC(Nc1ccc(F)cc1)=C(C#N)C#N	inactive: 6.54%
OC(c1cccc(Cl)c1)c1nc(-c2ccc(Cl)cc2)cs1 (stereo not drawn)	inactive: -85.1%
COc1ccc(C(=O)Nc2cc(C(C)=O)c(C)oc2=O)cc1	inactive: 6.06%
CCOC(=O)N1CCN(c2c(NCCN3CCN(c4ccccc4F)CC3)c(=O)c2=O)CC1	inactive: -0.992%
N=C(N)SCc1cn2ccccc2n1	inactive: 21.5%
COc1ccc(NC(=O)c2ccco2)c(OC)c1	inactive: 20.9%
O=C(NC1CCCCC1)C(c1cccnc1)N(CCc1ccccc1)C(=O)Cc1cccs1 (stereo not drawn)	inactive: -6.71%
CC(OC(=O)c1ccc(S(=O)(=O)N(C)c2ccccc2)cc1)C(=O)NCCC1=CCCCC1 (stereo not drawn)	inactive: -13.7%
CCN(CC)S(=O)(=O)c1ccc(OC)c(N)c1	inactive: 6.49%
Cc1nc(C(C)N(C)Cc2c(C(=O)N3CCCCC3)nc3c(C)cccn23)c(C)s1 (stereo not drawn)	inactive: -14.4%
